Laboratory results reported in PubChem BioAssay AID1645887 (National Center for Advancing Translational Sciences (NCATS), 2021).
The whole screen tested about 16,000 compounds, of which about 40 (0.2%) were called active. Roughly 1% stayed inconclusive and do not appear here. Calls come from the whole dose curve; as a rule, active = well fitted activation curve with a large enough effect; inconclusive = small, poorly fitted or top-dose-only effect, or another doubt; inactive = no such curve, though single readings can be large or run the other way. This is one part of the list.

What follows are compounds tested against Rap guanine nucleotide exchange factor 4 (Homo sapiens) (UniProt Q8WZA2) (assay: Validation qHTS for agonist of cAMP-regulated guanine nucleotide exchange factor 4 (EPAC2)). Details: EPAC2 Rap1B BODIPY-GDP exchange, fluorescence; activation: hits give high values.
Chain of UniProt Q8WZA2 (Q8WZA2 whole entry, looked up): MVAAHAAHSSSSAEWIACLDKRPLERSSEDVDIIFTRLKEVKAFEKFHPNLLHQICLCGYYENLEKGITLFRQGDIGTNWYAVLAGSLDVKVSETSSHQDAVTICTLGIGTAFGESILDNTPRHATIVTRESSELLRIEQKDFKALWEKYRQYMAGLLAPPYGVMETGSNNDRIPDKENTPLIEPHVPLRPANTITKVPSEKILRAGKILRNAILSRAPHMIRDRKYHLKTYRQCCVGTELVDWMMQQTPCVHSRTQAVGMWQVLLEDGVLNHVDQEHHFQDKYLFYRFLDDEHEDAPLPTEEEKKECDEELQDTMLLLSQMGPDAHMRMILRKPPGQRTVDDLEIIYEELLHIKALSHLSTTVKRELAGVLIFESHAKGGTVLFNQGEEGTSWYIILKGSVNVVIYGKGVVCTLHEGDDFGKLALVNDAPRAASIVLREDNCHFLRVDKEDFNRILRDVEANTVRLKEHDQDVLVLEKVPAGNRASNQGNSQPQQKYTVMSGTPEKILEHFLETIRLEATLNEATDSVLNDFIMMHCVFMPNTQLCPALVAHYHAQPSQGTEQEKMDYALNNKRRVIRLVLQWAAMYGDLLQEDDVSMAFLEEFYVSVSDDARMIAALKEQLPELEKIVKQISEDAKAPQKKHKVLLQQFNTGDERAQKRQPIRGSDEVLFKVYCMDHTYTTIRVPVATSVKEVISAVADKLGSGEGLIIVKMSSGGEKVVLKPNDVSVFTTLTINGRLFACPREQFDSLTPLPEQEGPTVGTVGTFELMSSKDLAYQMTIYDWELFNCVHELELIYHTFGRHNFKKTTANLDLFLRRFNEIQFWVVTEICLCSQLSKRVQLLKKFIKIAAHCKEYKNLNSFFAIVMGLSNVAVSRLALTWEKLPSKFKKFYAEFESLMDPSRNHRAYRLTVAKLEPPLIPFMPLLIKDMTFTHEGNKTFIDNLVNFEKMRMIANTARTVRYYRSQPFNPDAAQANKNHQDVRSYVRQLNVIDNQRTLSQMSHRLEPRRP
In short: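 Signal normalized against 6.5 mM cAMP as agonist control. Mix of EPAC2 (100 nM), RAP1B-BODIPY-GDP (250 nM) and GDP (50 uM) was read kinetically at 480/540 nm, every 5 min over 30 min, after 5 min room-temperature incubation with compound.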
% is set by controls: 0 for no effect and ±100 for the full control effect.
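Note: exchange makes BODIPY-GDP fluorescence drop when released from Rap1B; series mostly up to about 150 µM.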

activation, inactive:
CCN1CCCC1=O 0.647%
CN(Cc1ccon1)C(=O)c1cnn(-c2ncc3c(n2)-c2ccccc2CCC3)c1C1CC1 -21.6%
COc1ccc(-n2c(=O)c(-c3ccc(Cl)cc3)nc3cncnc32)cc1 -6.98%
Cc1ccccc1CN1CCCOCCS1(=O)=O -20.4%
O=C(c1ccco1)N1CCC2(CCN(Cc3nccs3)CC2)CC1 -16%
COC(=O)N1CCC[C@@]2(CCN(C(=O)Nc3ccccc3)C2)C1 3.02%
CC(=O)OC1CC2C(C)(C)C(O)CCC2(C)C2CC[C@]3(C)C(=CC(=O)OC3c3ccoc3)C12C (stereo partly drawn) -14.1%
O=C(O)C1=CC(O)[C@@H](O)C(O)C1 (stereo partly drawn) -25.2%
CO[C@H]1[C@@H](O)[C@H](N)[C@@H](O[C@H]2O[C@H]([C@H](C)N)CC[C@H]2N)[C@H](O)[C@@H]1N(C)C(=O)CN -7.27%
CSc1ncccc1C(=O)N1CCOc2ccc(C(C)(O)CCn3cccn3)cc2C1 (stereo not drawn) -2.4%
C[N+]1(C)C2CCC1CC(OC(=O)C(O)c1ccccc1)C2 (stereo not drawn) 2.2%
CO[C@@]12C[C@@H](COC(=O)c3cncc(Br)c3)CN(C)[C@H]1Cc1cn(C)c3cccc2c13 -18.3%
COCCn1c(=O)c(-c2ccc(Cl)cc2)nc2cnc(N(C)C)nc21 -3.66%
COc1cccc(-c2ccc3ncnc(NCc4cccs4)c3c2)c1 2.95%
C[C@@H]1O[C@@H](O[C@H]2[C@H](Oc3cc(O)c4c(c3)O[C@H](c3ccc(O)cc3)CC4=O)O[C@H](CO)[C@@H](O)[C@@H]2O)[C@H](O)[C@H](O)[C@H]1O -8.86%
Cc1c(F)c(N2CCNC(C)C2)cc2c1c(=O)c(C(=O)O)cn2C1CC1 (stereo not drawn) -2.98%
Cc1cnc(CNc2ncnc3ccc(-c4ccc(C(=O)N(C)C)cc4)cc23)cn1 -13.4%
O=C(Nc1ccccc1)OCC(CN1CCCCC1)OC(=O)Nc1ccccc1 (stereo not drawn) -17.4%
Cc1c(C(=O)N2CCC(Cc3ccccc3)CC2)sc2ncnc(NCc3ccccn3)c12 4.48%
NC(=O)[C@@H]1C[C@]2(NC(=O)NC2=O)c2cc(F)ccc2O1 -12.9%
CC(C)CN(C[C@@H](O)[C@H](Cc1ccccc1)NC(=O)O[C@@H]1CCOC1)S(=O)(=O)c1ccc(N)cc1 -13.1%
Cc1ccc(/C=N/n2c(-c3ccccc3)csc2=S)cc1 -15.2%
CC(C)(C)[C@H]1CCC(=O)N([C@H](CN=[N+]=[N-])Cc2ccccc2)CC1 -42.4%
